The source of these data is article PMC4336329 (PLoS ONE, 2015).

The whole screen tested about 310,000 compounds, of which about 2,200 (0.71%) showed an effect of 50% or more. The effect is printed as a negative number. The list shows a part of the results.

For this test, the target named is human ether-à-go-go-related gene (hERG) potassium channel (human, UniProt Q12809). As to the kind of experiment: primary screen, population patch clamp on CHO cells stably expressing hERG.
Sequence of human ether-à-go-go-related gene (hERG) potassium channel (Q12809 whole entry, looked up): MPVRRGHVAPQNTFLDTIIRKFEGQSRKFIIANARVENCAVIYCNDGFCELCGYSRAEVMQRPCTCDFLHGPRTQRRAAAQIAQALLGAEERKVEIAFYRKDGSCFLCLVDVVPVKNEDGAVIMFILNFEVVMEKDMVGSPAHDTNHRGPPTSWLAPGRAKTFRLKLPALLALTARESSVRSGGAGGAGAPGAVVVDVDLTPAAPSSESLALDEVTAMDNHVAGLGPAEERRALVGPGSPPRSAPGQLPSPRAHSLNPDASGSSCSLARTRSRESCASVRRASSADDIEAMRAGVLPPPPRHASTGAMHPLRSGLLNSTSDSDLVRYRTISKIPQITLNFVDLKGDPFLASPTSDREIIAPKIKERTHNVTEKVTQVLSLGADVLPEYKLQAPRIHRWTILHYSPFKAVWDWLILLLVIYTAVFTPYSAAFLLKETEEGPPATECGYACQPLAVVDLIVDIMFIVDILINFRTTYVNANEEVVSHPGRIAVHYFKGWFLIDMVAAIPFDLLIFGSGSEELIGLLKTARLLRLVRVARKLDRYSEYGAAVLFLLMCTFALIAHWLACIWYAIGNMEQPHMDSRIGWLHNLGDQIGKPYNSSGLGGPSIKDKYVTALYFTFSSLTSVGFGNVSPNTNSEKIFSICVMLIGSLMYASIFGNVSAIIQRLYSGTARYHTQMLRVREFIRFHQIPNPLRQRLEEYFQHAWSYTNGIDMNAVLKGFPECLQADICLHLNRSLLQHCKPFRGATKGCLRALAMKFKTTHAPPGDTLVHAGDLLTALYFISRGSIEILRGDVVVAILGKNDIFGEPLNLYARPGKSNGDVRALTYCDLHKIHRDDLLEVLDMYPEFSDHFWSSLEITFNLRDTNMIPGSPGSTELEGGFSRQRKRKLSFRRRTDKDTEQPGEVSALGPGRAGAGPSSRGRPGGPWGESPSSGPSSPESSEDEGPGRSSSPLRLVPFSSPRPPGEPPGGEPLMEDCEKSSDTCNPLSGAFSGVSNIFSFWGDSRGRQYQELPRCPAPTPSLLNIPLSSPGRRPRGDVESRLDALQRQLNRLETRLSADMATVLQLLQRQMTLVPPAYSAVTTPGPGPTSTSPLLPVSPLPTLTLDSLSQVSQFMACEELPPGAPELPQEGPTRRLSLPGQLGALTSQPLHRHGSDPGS
Take `COc1cccc(N(C(=O)c2snc(C(N)=O)c2N)C(C(=O)NCC2CCCO2)c2cccs2)c1` (stereo not drawn): the “hERG current change (%, negative = inhibition) at 1uM” value was 11.5%. As for `CNC(=S)N/N=C/c1cc(C)ccc1C`, the figure is 5.85%.

Consider `O=C1NC(=O)[C@]2(Cc3ccccc3N3CCN(c4ccccc4)CC32)C(=O)N1c1ccccc1` (stereo partly drawn), for which the “hERG current change (%, negative = inhibition) at 1uM” value is given as -0.115%. Take `CCOC(=O)[C@@H]1[C@H]2COc3ccc(Br)cc3[C@H]2N2C(=O)N(c3ccc(Br)cc3)C(=O)[C@]12C`: the “hERG current change (%, negative = inhibition) at 1uM” value was found to be 9.6%.

Regarding `CCCCCn1c(NC2CCCCC2)nc2c1c(=O)[nH]c(=O)n2C`, the “hERG current change (%, negative = inhibition) at 1uM” value worked out at 4.15%. `CSCC(=O)N1CCCC(CNC(=O)c2ccc(-c3ccccc3)cc2)C1` (stereo not drawn): the “hERG current change (%, negative = inhibition) at 1uM” value is reported as -1.78%. As to `CCc1nc(NCCO)c(C#N)c2c1CCCC2`, the “hERG current change (%, negative = inhibition) at 1uM” value is on record as 13.4%. Consider `O=c1cc(-c2ccccc2)nc2cc(-c3ccc(Br)cc3)[nH]n12`, for which the “hERG current change (%, negative = inhibition) at 1uM” value worked out at 14.9%. As for `Cc1nnc(NC(=O)c2nc(S(=O)(=O)Cc3ccccc3)ncc2Cl)s1`, the figure is 5.07%; as for `Cc1ccc2cc(CCNC(=O)CCCc3ccccc3)c(=O)[nH]c2c1`, 13.5%; as for `O=C(COC(=O)c1cccc2ccccc12)NCCCc1ccccc1`, 6.33%. With `CCOC(=O)C1/C(=N\O)CC(C)(O)C(C(=O)OCC)C1c1ccc(N(C)C)cc1` (stereo not drawn), the “hERG current change (%, negative = inhibition) at 1uM” value worked out at 12.6%. `O=C(COc1ccc(F)cc1)N(Cc1ccco1)C1CCS(=O)(=O)C1` (stereo not drawn): the “hERG current change (%, negative = inhibition) at 1uM” value was determined as 7.32%. As for `O=c1cnn(-c2ccccc2)c(-c2ccccc2)c1`, the figure is 7.62%; as for `COC(=O)CCCC1=CC2=C(c3ccccc3)C(=O)C(C)(OC(=O)C3CCCC3)C(=O)C2=CN1CCN1CCOCC1` (stereo not drawn), 8.02%; as for `CC(C)(C)c1ccc(Oc2ccc(NC(=O)C3CC=CCC3C(=O)O)cc2)cc1` (stereo not drawn), 9.61%. As for `CC(OC(=O)c1cn(-c2ccccc2)nc1-c1cccnc1)C(N)=O` (stereo not drawn), the figure is 3.31%. Turning to `Cc1ccccc1C(=O)NNC(=O)c1cccn1C`, the “hERG current change (%, negative = inhibition) at 1uM” value is listed as -0.066%. On to `CSc1cccc(NS(=O)(=O)c2ccc(F)cc2)c1`, for which the “hERG current change (%, negative = inhibition) at 1uM” value turned out to be 7.73%. Turning to `COc1ccc(/C=C/C(=O)NCCc2ccc(OC)c(OC)c2)cc1`, the “hERG current change (%, negative = inhibition) at 1uM” value is recorded as -0.514%. For the compound `O=C(CN1C(=O)/C(=C/c2ccccc2)Sc2ccccc21)NCCCN1CCOCC1`, the “hERG current change (%, negative = inhibition) at 1uM” value was 10.3%.

As for `COC(=O)/C=c1/sc2n(c1=O)CCN=2`, the “hERG current change (%, negative = inhibition) at 1uM” value stood at 8.53%.

`c1cncc(-c2cnc3ccccc3c2)c1`: the “hERG current change (%, negative = inhibition) at 1uM” value came to 12.2%. As for `CC(C)CCNC(=O)CCc1nnc(Cc2c[nH]c3ccccc23)o1`, the figure is 12.1%.

As to `Cc1nc(-c2ccccc2)sc1C1(C)CC(c2ccc([N+](=O)[O-])cc2)=NO1` (stereo not drawn), the “hERG current change (%, negative = inhibition) at 1uM” value was found to be 14.8%. On to `Cc1cc(NS(=O)(=O)c2ccc(NC(=O)N[C@H](C(=O)O)C(C)C)cc2)no1`, for which the “hERG current change (%, negative = inhibition) at 1uM” value was determined as 39.8%. In the case of `CCCCC1=CC2=C(c3ccco3)C(=O)C(C)(OC(=O)c3ccc(OC)cc3)C(=O)C2=CN1c1ccccc1` (stereo not drawn), the “hERG current change (%, negative = inhibition) at 1uM” value is recorded as 12.6%. On to `COc1ccc(OC)c(CN2CCC(C(=O)N(C)CCc3ccc(OC)c(OC)c3)CC2)c1.O=C(O)C(=O)O`, for which the “hERG current change (%, negative = inhibition) at 1uM” value is 4.75%. In the case of `Cc1ccc(NS(=O)(=O)c2cc(Br)cnc2N)cc1C`, the “hERG current change (%, negative = inhibition) at 1uM” value was 10.5%. As for `O=[N+]([O-])c1ccc(F)cc1F`, the figure is 8.57%; as for `CC#CCN1c2ccccc2[C@]23C[C@@H](C(=O)OC)N(C(C)=O)C2=NC(C(=O)OC)=C(C(=O)OC)[C@H]13`, 6.12%. Regarding `CCN(CC)S(=O)(=O)c1ccc2nc(CCl)[nH]c2c1`, the “hERG current change (%, negative = inhibition) at 1uM” value is -5.27%. In the case of `O=C(NC1CCCC1)C1CCC(CNS(=O)(=O)c2cccs2)CC1` (stereo not drawn), the “hERG current change (%, negative = inhibition) at 1uM” value is reported as -1.74%. As for `CC(=O)CSc1nc2cc3c(cc2cc1C#N)OCCO3`, the figure is 10.8%; as for `Cc1nc(NC(=O)c2cccc(Cl)c2)sc1C(=O)N1CCCCC1`, 15.4%. Turning to `Cc1c(C(=O)Nc2ccccc2-c2ccccc2)cccc1[N+](=O)[O-]`, the “hERG current change (%, negative = inhibition) at 1uM” value was -3.24%. As for `COc1cccc(N2C(=O)CC(N3CCC(C(N)=O)(N4CCCCC4)CC3)C2=O)c1` (stereo not drawn), the figure is 0.148%. As for `CC1Cc2ccccc2N1C(=O)COC(=O)c1cc(Br)ccc1O` (stereo not drawn), the figure is 15.6%; as for `Cc1cc2c(cc1C)C(c1cc(Br)ccc1F)CC(=O)N2` (stereo not drawn), 6.17%. Regarding `O=C(COc1ccc(Cl)cc1)Nc1ccc(NC(=O)c2ccco2)cc1`, the “hERG current change (%, negative = inhibition) at 1uM” value is reported as 14.4%. As for `O=C(NC1CCCC1)C(c1ccncc1)N(C(=O)c1csnn1)C1CCCC1` (stereo not drawn), the “hERG current change (%, negative = inhibition) at 1uM” value was 2.4%. Consider `C=CCn1c(C)c(C(C)=O)c(SC)nc1=S`, for which the “hERG current change (%, negative = inhibition) at 1uM” value is -8.31%. Take `c1ccc(Cn2nnc(CNc3ccccc3)c2-c2c(CNc3ccccc3)nnn2Cc2ccccc2)cc1`: the “hERG current change (%, negative = inhibition) at 1uM” value is recorded as 7.46%. Regarding `O=C(c1ccc2ccccc2c1)C1CCCN(C(=O)c2cnccn2)C1` (stereo not drawn), the “hERG current change (%, negative = inhibition) at 1uM” value is listed as 4.65%. As to `N/C(=N\OC(=O)c1cc(-c2ccccc2)nc2ccccc12)c1ccccn1`, the “hERG current change (%, negative = inhibition) at 1uM” value was 11.9%. For the compound `COc1ccccc1N1CCN(C(=O)C2CCN(S(=O)(=O)c3ccccc3)CC2)CC1`, the “hERG current change (%, negative = inhibition) at 1uM” value came to 0.673%. `NS(=O)(=O)c1ccc(CCNC(=O)CNCCc2ccccc2)cc1`: the “hERG current change (%, negative = inhibition) at 1uM” value is on record as 14.8%. In the case of `CCOc1cc(C(c2c(C)[nH][nH]c2=O)c2c(C)[nH][nH]c2=O)ccc1O`, the “hERG current change (%, negative = inhibition) at 1uM” value was 5.19%. For the compound `O=C(COc1ccc(=O)n(-c2ccccc2)n1)Nc1ccccc1`, the “hERG current change (%, negative = inhibition) at 1uM” value is on record as 4.75%. Consider `CCCCCOC(=O)Cn1c(N2CCCCCC2)nc2c1c(=O)[nH]c(=O)n2C`, for which the “hERG current change (%, negative = inhibition) at 1uM” value is 3.51%.

Regarding `COCCN(CCOC)S(=O)(=O)c1ccc(C(=O)Nc2ccncc2)cc1`, the “hERG current change (%, negative = inhibition) at 1uM” value was 8.14%. As for `O=C(c1ccco1)N1CCN(S(=O)(=O)c2c(Cl)cccc2Cl)CC1`, the figure is 4.68%.

Consider `CC(C)c1cc(CNC(=O)CCc2nnc(CCCCc3ccccc3)o2)on1`, for which the “hERG current change (%, negative = inhibition) at 1uM” value is given as 6.12%. As for `C=C(C)CSc1nc(N)c2c3c(sc2n1)CCC3`, the “hERG current change (%, negative = inhibition) at 1uM” value is on record as -1.87%. As for `c1ccc(-c2nnc(SCc3nc4ccccc4[nH]3)n2Cc2ccco2)nc1`, the figure is -0.975%; as for `N#Cc1c(C(F)(F)F)cc(-c2ccc(F)cc2)[nH]c1=O`, 12.7%; as for `COc1cc2c(cc1OC)CN(S(=O)(=O)c1cccs1)CC2`, -2.79%.

For `Cc1ccccc1C(=O)c1c[nH]c(C(=O)NCCc2ccccn2)c1`, the “hERG current change (%, negative = inhibition) at 1uM” value is 2.15%. Turning to `O=C(Nc1ccccc1Br)c1cccc2ccccc12`, the “hERG current change (%, negative = inhibition) at 1uM” value is recorded as 8.49%. As for `CCOC(=O)c1sc(N)c(C(=O)OC)c1C`, the figure is 2.01%. Take `O=S(=O)(/C(=C/c1ccc(C(F)(F)F)cc1)c1nc2ccccc2[nH]1)c1ccccc1`: the “hERG current change (%, negative = inhibition) at 1uM” value was determined as 5.64%. As for `COc1ccccc1N1C(=O)C2C3C=CC(CC3)C2C1=O` (stereo not drawn), the figure is 12.2%; as for `COC(=O)c1ccc(/C=C2\N=C(SC)SC2=O)cc1`, 9.49%; as for `CCCS(=O)(=O)Nc1c(C(=O)O)[nH]c2ccccc12`, 12.4%. As for `CC(C)CN(C(=O)CSc1nnc(C2CC2)n1-c1ccccc1)C1CCS(=O)(=O)C1` (stereo not drawn), the figure is -0.968%; as for `c1ccc(SSc2ccccn2)nc1`, 8.37%; as for `O=C(CC1SC(N2CCCCC2)=NC1=O)Nc1ccc(C(=O)NCCc2ccc(F)cc2)cc1` (stereo not drawn), 11.6%.

As for `Cc1cc(NS(=O)(=O)c2ccc(NC(=O)CSc3nc4sc(C)c(C)c4c(=O)[nH]3)cc2)no1`, the “hERG current change (%, negative = inhibition) at 1uM” value is recorded as -1.81%.

With `CCOC(=O)c1ccc(NC(=O)CSc2nc3c(c(=O)n2-c2ccccc2OC)SCC3)cc1`, the “hERG current change (%, negative = inhibition) at 1uM” value turned out to be 13.7%. With `C/C(=N\Nc1nc(C)c(C)s1)c1ccc([N+](=O)[O-])cc1`, the “hERG current change (%, negative = inhibition) at 1uM” value is given as 7.95%. As for `CC(Oc1ccc(Cl)cc1Cl)C(=O)N(Cc1ccco1)C1CCS(=O)(=O)C1` (stereo not drawn), the figure is 0.185%. Turning to `Cc1ccc(S(=O)(=O)NCC(=O)N(CC(=O)NCC2CCCO2)Cc2ccccc2Cl)cc1` (stereo not drawn), the “hERG current change (%, negative = inhibition) at 1uM” value worked out at 9.29%. As for `CC(=O)c1cn(-c2ccc(Cl)cc2)c(=O)n(Cc2ccc(F)cc2)c1=O`, the figure is 9.43%; as for `Cc1ccc(C2c3[nH]c4ccccc4c3C[C@H]3C(=O)N(c4ccccc4C(=O)N4CCC[C@@H]4C(=O)O)C(=O)N23)cc1` (stereo partly drawn), 5.33%; as for `CCCCOc1ccc(/C=N/NC(=O)c2nnn(-c3nonc3N)c2CN2CCCCCC2)cc1`, 12.6%. As for `COC(C(=O)Nc1ccc(Cl)cc1C)c1ccccc1` (stereo not drawn), the “hERG current change (%, negative = inhibition) at 1uM” value is recorded as 6.66%. Turning to `CC(C)NC(=O)COc1coc(CN2CCN(Cc3ccccc3)CC2)cc1=O`, the “hERG current change (%, negative = inhibition) at 1uM” value is 16.6%.

Turning to `CCNC(=O)NC(=O)CSc1ccc(S(=O)(=O)N2CCCCC2)cn1`, the “hERG current change (%, negative = inhibition) at 1uM” value turned out to be 9.19%.

Consider `Cc1cc(C)c(S(=O)(=O)Nn2cnnc2)c(C)c1`, for which the “hERG current change (%, negative = inhibition) at 1uM” value was 15.5%. As for `CCOC(=O)N1CCN(C(=O)CS(=O)Cc2nc(-c3ccc(OC)c(OC)c3)oc2C)CC1` (stereo not drawn), the “hERG current change (%, negative = inhibition) at 1uM” value stood at 10.5%. Turning to `CC(C)(C)c1ccc(OC(=O)c2cccnc2)cc1`, the “hERG current change (%, negative = inhibition) at 1uM” value turned out to be 3.97%. In the case of `Cc1nc2ccccc2c(=O)n1CCCn1ccnc1`, the “hERG current change (%, negative = inhibition) at 1uM” value is reported as 0.288%. Regarding `COc1ccc(NC(=O)CS(=O)CC(=O)NCC2OCCc3ccccc32)cc1` (stereo not drawn), the “hERG current change (%, negative = inhibition) at 1uM” value was determined as 7.41%. As for `COC(=O)C1=C(C)N(c2cccc(OC)c2)C(=O)/C1=C\c1ccco1`, the figure is -2.59%; as for `COC(=O)/C=C/C(=O)NCc1ccco1`, 12.6%. As for `Cc1cc(NCc2ccco2)n2ncnc2n1`, the figure is 10.4%; as for `CCOc1ccc(CNC(c2ccccc2)c2ccccc2)cc1.Cl`, 11.9%.
